{"source": "PubChem BioAssay AID902", "about": "(National Center for Advancing Translational Sciences (NCATS), 2007)", "note": "Hit rate of the full screen: of about 130,000 compounds, about 1,900 (1.5%) were called active. Inconclusive results, whose numbers are uncertain, are shown with a selection of clear calls. Calls come from the whole dose curve; as a rule, active = well fitted cell-killing curve with a large enough effect; inconclusive = small, poorly fitted or top-dose-only effect; inactive = no such curve, though single readings can be large or run the other way. Potencies of inconclusive entries are doubtful fits and often do not repeat. % is set by controls: 0 for no effect and ±100 for the full control effect; potency is the fitted concentration of half-maximal effect; tags give direction and shape of the fitted curve."}
{"test": "qHTS Screen for Compounds that Selectively Target Cancer Cells with p53 Mutations: Cytotoxicity of p53ts Cells at the Nonpermissive Temperature; note: nearly all actives have a fitted effect of over 55% in size", "conditions": "H1299-p53A138V viability at 39C, ATP luminescence, 24 h; activity change, negative = cell killing: at 46.1 µM (top of the series)"}
{"smiles": "Cc1cc(C)nc(Nc2ccc(N3CCCC3)cc2)n1", "Potency": "inactive"}
{"smiles": "O=C(Nc1ccc(Br)cc1F)c1cc(S(=O)(=O)NC2CCCC2)ccc1F", "Potency": "inconclusive: 3.98 µM [cytotoxic, partial curve]"}
{"smiles": "COc1ccc(NC(=O)c2ccc3c(SCC(=O)O)c4c(nc3c2)CCCC4)cc1OC", "Potency": "inactive"}
{"smiles": "CCOc1ccc(Nc2nc(Cc3nnc(SCC(=O)O)o3)cs2)cc1", "Potency": "inconclusive: 10 µM [cytotoxic, partial curve]"}
{"smiles": "CCSc1nnc(-c2ccc(OC)cc2)o1", "Potency": "inconclusive: 15.8 µM [cytotoxic, partial curve]"}
{"smiles": "COCCCNC(=O)c1[nH]c2cc(OC)ccc2c1Sc1ccc(C)cc1", "Potency": "inconclusive: 31.6 µM [cytotoxic, single point]"}
{"smiles": "CCOC(=O)c1cc(-c2ccccc2)n(CCC(=O)Nc2ccc(C(F)(F)F)cc2)c1C", "Potency": "inconclusive: 2.51 µM [cytotoxic, partial curve, poor fit]"}
{"smiles": "Cc1cccc(NC(=O)CSc2nc3ccc(NC(=O)COc4ccc(Cl)cc4)cc3s2)c1", "Potency": "inconclusive: 12.6 µM [cytotoxic, partial curve]"}
{"smiles": "Cc1c(NC(=O)Cc2ccc(F)cc2)cccc1-c1nc2cccnc2s1", "Potency": "inconclusive: 15.8 µM [cytotoxic, single point]"}
{"smiles": "N#CC1=C(N)SC(N)=C(C#N)C1c1ccnc2ccccc12", "Potency": "inactive"}
{"smiles": "COc1ccc(NC(=O)CCc2c(C)nc3c(-c4ccccc4)c(C)nn3c2C)cc1Cl", "Potency": "inconclusive: 12.6 µM [cytotoxic, single point]"}
{"smiles": "Cc1cccc2c1-c1sc(C(=O)NCCCN3CCN(c4cccc(Cl)c4)CC3)cc1CO2", "Potency": "active: 12.6 µM"}
{"smiles": "Fc1ccc(-n2ncc3c(Nc4ccc(Oc5ccccc5)cc4)ncnc32)cc1", "Potency": "inconclusive: 7.94 µM [cytotoxic, partial curve]"}
{"smiles": "COc1cc2nc(N3CCN(C(=O)[C@H]4CCCO4)CC3)nc(N)c2cc1OC", "Potency": "inconclusive: 0.0063 µM [cytotoxic, full curve, poor fit]"}
{"smiles": "COc1cccc(C(=O)NC(c2ccc(Cl)cc2)c2cc(Cl)c3cccnc3c2O)c1", "note": "(configuration not stated)", "Potency": "inconclusive: 2 µM [cytotoxic, full curve]"}
{"smiles": "FC(F)(F)c1ccc(C2=Nc3ccccc3NC(c3cccs3)=N2)cc1", "Potency": "inconclusive: 12.6 µM [cytotoxic, partial curve, poor fit]"}
{"smiles": "COC(=O)c1ccc2oc(=O)c(S(=O)(=O)c3ccc(C)cc3)cc2c1", "Potency": "inconclusive: 12.6 µM [cytotoxic, single point]"}
{"smiles": "CC(=O)Nc1cccc(-c2nnc(SCC(=O)c3cc([N+](=O)[O-])ccc3Br)o2)c1", "Potency": "inconclusive: 7.94 µM [cytotoxic, partial curve]"}
{"smiles": "O=c1oc2ccccc2c(O)c1/C=N/c1nc(-c2ccc(O)c(O)c2)cs1", "activity change, negative = cell killing": "inactive: 6.59% [at 9.22 µM]"}
{"smiles": "CCOc1ccc2nc(N3CCCC(C(=O)NCc4ccc(OC)cc4)C3)sc2c1", "note": "(configuration not stated)", "Potency": "inconclusive: 10 µM [cytotoxic, partial curve]"}
{"smiles": "CC(C)S(=O)(=O)c1oc(-c2ccc(F)cc2)nc1S(=O)(=O)c1ccc(F)cc1", "Potency": "active: 3.16 µM"}
{"smiles": "COc1ccc2cc(-c3cn4c(n3)sc3cc(F)ccc34)c(=O)oc2c1", "Potency": "inactive"}
{"smiles": "C=C[C@](C)(O)CCC1C(=C)CC(OC(C)=O)C2C(C)(C)CCCC12C", "note": "(some centres not stated)", "Potency": "inconclusive: 31.6 µM [cytotoxic, single point]"}
{"smiles": "Cc1ccc(C)c(N2CCN(C(=O)c3cc(S(=O)(=O)N4CCCCC4)cn3C)CC2)c1", "Potency": "inconclusive: 2.51 µM [cytotoxic, full curve, poor fit]"}
{"smiles": "O=C(c1ccc(CSc2nc3ccncc3n2Cc2ccccc2F)cc1)N1CCCCCC1", "Potency": "inactive"}
{"smiles": "C=CC(=O)OCCOCCOC(=O)C=C", "Potency": "active: 31.6 µM"}
{"smiles": "c1ccc(Nc2cc(-c3ccoc3)ncn2)cc1", "Potency": "inconclusive: 31.6 µM [cytotoxic, single point]"}
{"smiles": "CC(C)(C)c1ccc(OCCSc2nc(-c3cccs3)nc3cc(=O)[nH]n23)cc1", "Potency": "inactive"}
{"smiles": "O=C(NCCc1ccccc1)c1cc(-c2ccccc2)nc2n[nH]c(-c3ccccc3)c12", "Potency": "inconclusive: 3.16 µM [cytotoxic, partial curve, poor fit]"}
{"smiles": "C=C(CO)C1Cc2c(ccc3c2OC2COc4cc(OC)c(OC)cc4C2C3=O)O1", "note": "(configuration not stated)", "Potency": "inactive"}
{"smiles": "Cc1ccc(-c2cc(C(=O)NCCc3ccccc3)c3ccccc3n2)cc1C", "Potency": "inconclusive: 20 µM [cytotoxic, partial curve, poor fit]"}
{"smiles": "CN(C)c1ccc(/C=C(\\C#N)c2nc3ccccc3c(=O)[nH]2)cc1", "Potency": "active: 0.316 µM"}
{"smiles": "COCc1cc(=O)n2c(-c3ccc(C)cc3)n[nH]c2n1", "Potency": "active: 10 µM"}
{"smiles": "O=C(c1ccc(CSc2nc3ccncc3n2Cc2ccccc2F)cc1)N1CCCCC1", "Potency": "inconclusive: 10 µM [cytotoxic, partial curve, poor fit]"}
{"smiles": "Fc1ccc(C2=NC(c3cccc(C(F)(F)F)c3)=Nc3ccccc3N2)cc1", "Potency": "inconclusive: 31.6 µM [cytotoxic, single point]"}
{"smiles": "Cc1ccc2nc(/C(C#N)=C/c3ccc(-c4ccc(F)cc4F)o3)[nH]c2c1", "Potency": "active: 5.01 µM"}
{"smiles": "CC1(C)Oc2ccc(NC(=O)C3COc4ccccc4O3)cc2O1", "note": "(configuration not stated)", "Potency": "inconclusive: 12.6 µM [cytotoxic, partial curve]"}
{"smiles": "COc1ccc2[nH]cc(CCNc3nc(-c4cccc(NS(C)(=O)=O)c4)nc4ccccc34)c2c1", "Potency": "inconclusive: 31.6 µM [cytotoxic, single point]"}
{"smiles": "NC(=O)c1ccsc1NC(=O)COc1ccccc1", "Potency": "inconclusive: 12.6 µM [cytotoxic, partial curve]"}
{"smiles": "Cc1cc(=O)[nH]c2n[nH]c(-c3ccccc3)c12", "Potency": "inconclusive: 10 µM [cytotoxic, partial curve]"}
{"smiles": "COc1cc2nc(SCc3ccc(F)cc3)n3nc(CCn4c(C)nc5ccccc54)nc3c2cc1OC", "Potency": "inconclusive: 2.51 µM [cytotoxic, full curve]"}
{"smiles": "CC(=O)Nc1ccc(NC(=O)c2ccco2)cc1", "Potency": "inconclusive: 12.6 µM [cytotoxic, partial curve]"}
{"smiles": "CCOc1ccccc1NC(=O)N1CCN(Cc2cc(=O)n3nc(-c4ccc(C)cc4)sc3n2)CC1", "Potency": "inactive"}
{"smiles": "COc1ccc(-c2coc3cc(O)ccc3c2=O)cc1OC", "Potency": "inconclusive: 10 µM [cytotoxic, single point]"}
{"smiles": "CC(=O)OC[C@@H]1O[C@H](C/C=N\\OC[C@@H](O)[C@H]2O[C@H]3OC(C)(C)O[C@H]3[C@@H]2O)C=C[C@@H]1OC(C)=O", "activity change, negative = cell killing": "inactive: -4.31% [at 9.22 µM]"}
{"smiles": "CCCCc1ccc(-c2ccc(C)cc2O)nc1", "Potency": "inconclusive: 15.8 µM [cytotoxic, single point]"}
{"smiles": "Cc1nc2c(C(=O)NCc3ccc4c(c3)OCO4)c[nH]n2c(=O)c1Cc1ccccc1F", "Potency": "inconclusive: 31.6 µM [cytotoxic, single point]"}
{"smiles": "COc1ccc(N2CCN(C(=O)c3nn(C)c4c3CSc3ccccc3-4)CC2)cc1", "Potency": "inactive"}
{"smiles": "CCc1ccc(C(=O)c2cn(CC(=O)Nc3ccc(OC)c(Cl)c3)c3nc(C)ccc3c2=O)cc1", "Potency": "inconclusive: 10 µM [cytotoxic, partial curve]"}
{"smiles": "COc1ccc2oc(=O)c(-c3nc4ccccc4o3)cc2c1", "Potency": "inactive"}
{"smiles": "CCOC(=O)c1ccccc1NC(=O)c1sc2ncn(CC)c(=O)c2c1C", "Potency": "inactive"}
{"smiles": "CN(C(=O)c1oc(=O)c2ccccc2c1-c1ccccc1)c1cccc(Cl)c1", "Potency": "inconclusive: 5.62 µM [cytotoxic, full curve, poor fit]"}
{"smiles": "O=C(Nc1ccc2oc(-c3cc(Br)ccc3Cl)nc2c1)c1ccc2ccccc2c1", "Potency": "active: 12.6 µM"}
{"smiles": "COc1ccc(-c2n[nH]c(C)c2-c2ccc(Cl)cc2)c(O)c1OC", "Potency": "inconclusive: 20 µM [cytotoxic, single point]"}
{"smiles": "CCCOC(=O)c1ccc(Nc2nc3ccccc3nc2-n2nc(C)cc2C)cc1", "Potency": "inactive"}
{"smiles": "Cc1ccccc1NC(=O)c1ccc(F)c(S(=O)(=O)NC2CCCC2)c1", "Potency": "inconclusive: 15.8 µM [cytotoxic, partial curve, poor fit]"}
{"smiles": "CCN1CCN(C(=O)c2ccc3c(c2)N(Cc2ccccc2F)C(=O)c2ccccc2S3(=O)=O)CC1", "Potency": "inconclusive: 31.6 µM [cytotoxic, single point]"}
{"smiles": "Cc1ccc2nc(-c3sc4nc(C)cc(C)c4c3N)[nH]c2c1", "Potency": "inactive"}
{"smiles": "c1cncc(-c2nnc(-c3cccnc3)nn2)c1", "Potency": "inconclusive: 31.6 µM [cytotoxic, single point]"}
{"smiles": "COc1ccc2cc3cc(C(=O)Nc4ccccc4C)oc3nc2c1", "Potency": "inconclusive: 0.251 µM [cytotoxic, full curve]"}
{"smiles": "Cc1ccc(S(=O)(=O)CCc2nc3ccccc3n2CCC#N)cc1", "Potency": "inconclusive: 31.6 µM [cytotoxic, single point]"}
{"smiles": "COc1ccc(NC(=O)c2sc3nc4c(cc3c2N)CCCCCC4)cc1Cl", "Potency": "inconclusive: 20 µM [cytotoxic, single point]"}
{"smiles": "CC/C(C)=N\\N=C\\c1c(O)n(CC)c2cc(C3=NNC(=O)CC3)ccc12", "Potency": "inactive"}
{"smiles": "CCCCCCC(=O)N1CCC(c2nc3c(nnn3Cc3ccccc3Cl)c(=O)[nH]2)CC1", "Potency": "inconclusive: 31.6 µM [cytotoxic, single point]"}
{"smiles": "Cc1cn2c(=O)cc(COC(=O)c3cccc(NC(=O)COc4ccc(Cl)cc4)c3)nc2s1", "Potency": "inconclusive: 31.6 µM [cytotoxic, single point]"}
{"smiles": "Cc1ccc2[nH]c3nc(CCCn4ccnc4-c4ccccc4)nnc3c2c1", "activity change, negative = cell killing": "inactive: 0.272% [at 9.22 µM]"}
{"smiles": "Fc1ccc(C(Nc2ccc(Cl)c(C(F)(F)F)c2)c2nnc(-c3ccccc3)o2)cc1", "note": "(configuration not stated)", "Potency": "inactive"}
